# Experimental data: the RNAGym collection of RNA variant scans (doi:10.7554/elife.90254)
# Read counts are not given, so values of variants with three or more changes are uncertain.
# B1: LINE1-mini (parent)
# chain: GGCAGAGCUCAACACAGCGUGGCAAAGUGGCUGUGGCUAGACUGCC
# Variants of: B1
# Assay: self-cleavage, relative activity (ratio to wild type); higher = more cleavage; in vitro, sequencing; the parent is a self-cleaving ribozyme
row,Variant,self-cleavage
1,A11C C18U G22U,0.21
2,A11U C13A A14G C37A,0.01
3,C8A C15A C23G G44A,0.21
4,C8G C10U U20G C31A,0.02
5,C3U G7A U32C C46G,0.14
6,G5A C8A G17C G21C A41U,0.02
7,G35C A39U C46A,0.06
8,C10G U28G G44C,0.13
9,A16C U34C C45U,0.23
10,G5C G33C U34A,0.02
11,A6C C13G C15U G44U,0.01
12,C3U G22U A24U,0.58
13,G17C C23U G35A,0.03
14,A25G G33U C45G,0.01
15,C3A A6G C23U G27A G35C,0.12
16,C13G A16G C18A G29U U34C C42G,0
17,G1A G7A A14C G19U U38A,0.19
18,C10A C15A U38A G40U G44C,0.01
19,G22C G44A C45G,0.28
20,A26C G33A G44U,0.1
21,G2C C8G A12U,0.05
22,A6U A14G U32G G40C,0.17
23,G5U G22C G40C,0.01
24,G2U C3U G19A C31G,0.11

row,Variant,self-cleavage
1,G21U C23U G30C U38C C45A,0.03
2,C3A A16U C37A,0.12
3,C13G U38G G40C,0.03
4,C3G C15G C18U U32C,0.01
5,G5C A6C U9A,0.29
6,G2U C23U C37U,0.02
7,C3G C8A C31G C37G,0.09
8,C8G G17C G21C,0.05
9,C13G U20G A41G,0.03
10,G21C A25C G27U G33C,0.02
11,C13U A14U G35U G36A,0.11
12,A14G G22A G29C,0.12
13,G5A A14G U20A G30A G35U G36U C42U,0.02
14,C3G A6U C18U A24U G27C C42U G44A,0.16
15,G1U C8G C45G,0.01
16,U20G G22U C31U,0.13
17,G5C U9G U20C G22A A39C,0.01
18,G5C A6U G35U,0.02
19,G2A G7A A14C,0.12
20,C10A U20C U28C G44U,0.03
21,G21U G36U G44U,0.41
22,U28G C31G U32C A41C,0.05
23,G5U C10A A11C,0.04
24,A16C G29U C46G,0.15

row,Variant,self-cleavage
1,G1U C15U G27U U38C,0.46
2,C3U A4U U20C,0.1
3,G1U G2A G29U,0.34
4,G2A C3U G7U C46A,0.2
5,G19C G27U U32A G44C,0.1
6,A12U A25G G27A U28A,0.11
7,G7U A12U A24G A26G A41G,0.02
8,G1U C8U C10A C37U U43A,0.01
9,G5A C10A C18G,0.06
10,A4C U9C A12C A16C A25U G35A C37U,0.01
11,C3U G29A G44A,0.32
12,G2U C13A A41U,0.09
13,A6U C37U A39C,0.02
14,C10A C13A A41U,0.03
15,G7C C15A C23U G35C C42A,0.12
16,A16C G21U C45U C46U,0.04
17,G2C U9C G27C G33C C37G,0.01
18,A14C U34G G44C,0.14
19,A6G C8G A12G,0.03
20,A4C U9C U43C C45A,0.03
21,G2C C13U A26G G29C G44A,0.13
22,G1U A41U C46G,0.35
23,G7C C8G G19A U20C,0.05
24,A4G C13G C15U A25C U34A G35C,0.08

row,Variant,self-cleavage
1,C8A U9C U20C G27U,0.04
2,A6C U9G C13G G40A,0.11
3,A26U G35A G36U C42U,0.01
4,G1C C3G C13A A14C G17U,0.08
5,C10U A12U G22C A25U,0.05
6,C15U C23U U32A,0.02
7,C8U A14C C23U U28C,0.15
8,G7U U9G A16C A39U,0.08
9,G1C G17U G27A G40A U43A,0.02
10,C8U A24G U28C C46G,0.07
11,G2U G33A G40U,0.05
12,C10G C13G A25U G29C C31A U34C,0
13,A14G G19A U38A,0.24
14,G5U A12G C15G A26C C31A C37G,0.04
15,C3G U9G A14G A16U G40A A41C U43G G44A,0.01
16,G22A G35U A39G,0.05
17,G2A G7A G35C,0.06
18,C10A G22U U38A,0.22
19,C3G G5A C42A,0.04
20,G1C C10G A11U G17U A26C U28G C37A U38G,0
21,A26C G29C U43C,0.01
22,U9G C10G G33U,0.04
23,A14G C15A A39G,0.01
24,A12U C13U U34C G44U C46G,0.28

row,Variant,self-cleavage
1,C10A A16G G22A,0.04
2,G7A G17A C23A A24C A26G A41U,0.04
3,A11C G36A A41C,0
4,A11C A16U G19U G27A G29U U32G,0.04
5,C8U G30U G44U,0.19
6,G22U A24C G27C U34C,0.12
7,U9G G22U A24U C45U,0.08
8,A6U A16U G19U,0.09
9,C3A U32G G35A,0.09
10,C8A G29C G40U C42A U43A,0.03
11,G2A G19A A24C,0.47
12,G5A G30A A41G,0.06
13,A4G G7U C45G,2.97
14,C18A G19C U34G,0.1
15,C13U G30C C45A,0.06
16,C8G A24G G30C,0.07
17,A6C A39U U43G,0.04
18,G2A C10U G19A G36C A41C,0.05
19,A11U C15A G22C G27C U28G G33C A39U,0.02
20,A12U A26U C37A,0.09
21,G2C A6U C13G G40A,0.08
22,G7C U9G U28G C46U,0.15
23,C15G G21C A25C,0.02
24,G21A A24G G35U G36C A39G C45G,0.05

row,Variant,self-cleavage
1,C8A G30U C31A A41U,0.68
2,G1U A4U U9G G29U,0.01
3,G5U C15U G44A,0.09
4,G5A G19C G30C U38C,0.05
5,G1A C8G G17A A25U U28A,0.03
6,C10U A11G C18U G30C G36U,0.02
7,G1U A14C C18A,0.04
8,G2U G7A A14C C18A A26C G44A,0.03
9,G1C A4U A11C C13G G35C G40C G44A C46A,0
10,G21U U32C C37U,0.04
11,U9C G17U G19A C23G G29A,0.05
12,G19A G36U C42G,0.02
13,G2U C10A A16G G22C,0.01
14,A16C G22A G29C,0.94
15,C18G G27U U32A C42U,0.01
16,A14C G30A C31A U32C,0.04
17,C3U G40C A41U,0.04
18,C15A A41U G44A,0.04
19,G7C U20C G30C U38A G44U,0.03
20,A14G A25C G33C,0.05
21,C3A G7A A16U C37U,0.12
22,G2U G17U G21C A26U,0.01
23,C3G C8A C15A C18U A24U,0.71
24,G2U C3A A12U C13G C31U,0.08

row,Variant,self-cleavage
1,A6G G7C C13U C23A G36U A39U,0.08
2,A16C A25G U28A G29C C31A G33U C42G,0.01
3,A16G G27U U28A G40C,0.09
4,A14G A24G A25C G30U U32C,0.01
5,C15A G19A C23A A41C,0.06
6,G29U C31U G36U,0.07
7,U9A U32G G44A C45A,0.08
8,C3U G5U G19U G29A G30A,0.13
9,C3A A39G G40U U43G,1.44
10,G17A U20A G21C U43A,0
11,C8A C15G C37U,0.11
12,G1A A11C A26G G27C G29C C31G,0.02
13,C3A A12C A26U G35A,0.03
14,A4C G17A C31U,0.03
15,A6U C23U C31G,0.18
16,A6C G7A A14G U38A,0.03
17,G7C U28A G29A G44U C46U,0.01
18,G5U G17U U38G,0.02
19,A24G G36U C37G,0.02
20,G1C C31U U32G,0.02
21,G22C U32A C42A,0.06
22,G5U C13U U32C,0.05
23,G5C A16C G21U,0.02
